Paper PMC7170388, “Strong inhibitory activities and action modes of lipopeptides on lipase” (Journal of Enzyme Inhibition and Medicinal Chemistry, 2020)

Experiments:
[1] = target: T1, Mucor miehei lipase (Mucor miehei, UniProt P19515 95-363)
T1 sequence (looked up): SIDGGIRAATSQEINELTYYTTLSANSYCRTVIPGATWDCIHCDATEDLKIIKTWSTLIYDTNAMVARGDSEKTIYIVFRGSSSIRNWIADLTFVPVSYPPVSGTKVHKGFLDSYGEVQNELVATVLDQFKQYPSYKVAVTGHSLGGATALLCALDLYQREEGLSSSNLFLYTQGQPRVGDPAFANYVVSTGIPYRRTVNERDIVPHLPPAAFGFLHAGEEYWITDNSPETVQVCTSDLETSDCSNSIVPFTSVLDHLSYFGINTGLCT

[2] = target: T2, Mucor miehei lipase (Rhizomucor miehei, UniProt P19515); assay: Lipase inhibition (4-NPP hydrolysis, 405 nm); conditions: 0.75 mM 4-NPP, 0.4 µg/mL lipase, Tris-HCl buffer pH 7.8, 37 °C, crude lipopeptide and purified fengycin dissolved in water, iturin and surfactin standards in methanol
T2 sequence (P19515 95-363): T1 sequence (looked up)
Protocol: Lyophilised powder of Mucor miehei lipase (EC3.1.1.3), 4-Nitrophenyl palmitate (4-NPP), iturin, and surfactin were purchased from Sigma-Aldrich (St. Louis, MO). Acetonitrile, hydrochloric acid (HCl) and Tris were purchased from Sinopharm (Shanghai, China).
The lipase inhibition was determined according to the method described by Liu et al.[21] 10 µg/mL lipase in water and 7.5 mmol/L 4-NPP in acetonitrile solutions were prepared. The crude lipopeptide and purified fengycin were dissolved in water, while the iturin and surfactin standards were dissolved in methanol, and then all were diluted to their appropriate concentrations. The 1 mL reaction mixture contained 0.75 mM 4-NPP, 0.4 µg/mL lipase, and different concentrations of inhibitor in Tris-HCl buffer (pH 7.8). The reaction was carried out at 37 °C and the detection wavelength was set at 405 nm.

Row | Substance | peak absorbance of the product at 405 nm after 10 min of lipase catalysis with 0.015 mg/mL lipopeptide [1] | IC50 (half maximal inhibitory concentration), Measured [2]
1 | crude lipopeptide from Bacillus velezensis FJAT-52631 | 54.5% | –
2 | fengycin | – | 5 µg/mL
3 | iturin | – | 56 µg/mL
4 | surfactin | – | 5 µg/mL
